Residue numbers refer to the chain shown, from its start. The list shows a part of the results.
T1: RBFOX1 RRM (Homo sapiens, UniProt Q9NWB1 109-208)
T1 sequence: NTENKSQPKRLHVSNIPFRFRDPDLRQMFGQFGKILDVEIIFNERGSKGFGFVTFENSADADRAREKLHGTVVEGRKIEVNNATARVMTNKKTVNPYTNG

B1: CAGGGUG (DNA:RNA)
RNA: GGGAGACCGGAAUUCAGAUUGUCCCAGGGUGUUAAAUCCCGUCGUAGCCACCA
DNA 1: CAATCTGAATTCCGGTCTCCC
DNA 2: TGGTGGCTACGACGGGATT
B2: CGAGCCU (DNA:RNA)
RNA: B1 RNA with A26G, G27A, G29C, U30C, G31U
DNA 1: CAATCTGAATTCCGGTCTCCC
DNA 2: TGGTGGCTACGACGGGATT
B3: ACUGGCG (DNA:RNA)
RNA: B1 RNA with C25A, A26C, G27U, U30C
DNA 1: CAATCTGAATTCCGGTCTCCC
DNA 2: TGGTGGCTACGACGGGATT
B4: AGCAUUA (DNA:RNA)
RNA: B1 RNA with C25A, A26G, G27C, G28A, G29U, G31A
DNA 1: CAATCTGAATTCCGGTCTCCC
DNA 2: TGGTGGCTACGACGGGATT
B5: UACCGUU (DNA:RNA)
RNA: B1 RNA with C25U, G27C, G28C, G31U
DNA 1: CAATCTGAATTCCGGTCTCCC
DNA 2: TGGTGGCTACGACGGGATT
B6: CUCAGUG (DNA:RNA)
RNA: B1 RNA with A26U, G27C, G28A
DNA 1: CAATCTGAATTCCGGTCTCCC
DNA 2: TGGTGGCTACGACGGGATT
B7: GUUUGUC (DNA:RNA)
RNA: B1 RNA with C25G, A26U, G27U, G28U, G31C
DNA 1: CAATCTGAATTCCGGTCTCCC
DNA 2: TGGTGGCTACGACGGGATT
B8: ACUUAUC (DNA:RNA)
RNA: B1 RNA with C25A, A26C, G27U, G28U, G29A, G31C
DNA 1: CAATCTGAATTCCGGTCTCCC
DNA 2: TGGTGGCTACGACGGGATT
B9: ACCACAU (DNA:RNA)
RNA: GGGAGACCGGAAUUCAGAUUGUCCACCACAUUUAAAUCCCGUCGUAGCCACCA
DNA 1: CAATCTGAATTCCGGTCTCCC
DNA 2: TGGTGGCTACGACGGGATT
B10: AAGAUAG (DNA:RNA)
RNA: B9 RNA with C26A, C27G, C29U, U31G
DNA 1: CAATCTGAATTCCGGTCTCCC
DNA 2: TGGTGGCTACGACGGGATT
B11: GGUGUAG (DNA:RNA)
RNA: B1 RNA with C25G, A26G, G27U, G29U, U30A
DNA 1: CAATCTGAATTCCGGTCTCCC
DNA 2: TGGTGGCTACGACGGGATT
B12: UUUUAGA (DNA:RNA)
RNA: GGGAGACCGGAAUUCAGAUUGUCCUUUUAGAUUAAAUCCCGUCGUAGCCACCA
DNA 1: CAATCTGAATTCCGGTCTCCC
DNA 2: TGGTGGCTACGACGGGATT
B13: GGGAAUU (DNA:RNA)
RNA: B9 RNA with A25G, C26G, C27G, C29A, A30U
DNA 1: CAATCTGAATTCCGGTCTCCC
DNA 2: TGGTGGCTACGACGGGATT
B14: CGCUAGG (DNA:RNA)
RNA: B12 RNA with U25C, U26G, U27C, A31G
DNA 1: CAATCTGAATTCCGGTCTCCC
DNA 2: TGGTGGCTACGACGGGATT
B15: AGGCUAG (DNA:RNA)
RNA: B9 RNA with C26G, C27G, A28C, C29U, U31G
DNA 1: CAATCTGAATTCCGGTCTCCC
DNA 2: TGGTGGCTACGACGGGATT
B16: ACAGUCA (DNA:RNA)
RNA: B9 RNA with C27A, A28G, C29U, A30C, U31A
DNA 1: CAATCTGAATTCCGGTCTCCC
DNA 2: TGGTGGCTACGACGGGATT
B17: UGAUUCU (DNA:RNA)
RNA: B12 RNA with U26G, U27A, A29U, G30C, A31U
DNA 1: CAATCTGAATTCCGGTCTCCC
DNA 2: TGGTGGCTACGACGGGATT
B18: GUGGUAA (DNA:RNA)
RNA: B1 RNA with C25G, A26U, G29U, U30A, G31A
DNA 1: CAATCTGAATTCCGGTCTCCC
DNA 2: TGGTGGCTACGACGGGATT
B19: UCACGAA (DNA:RNA)
RNA: B9 RNA with A25U, C27A, A28C, C29G, U31A
DNA 1: CAATCTGAATTCCGGTCTCCC
DNA 2: TGGTGGCTACGACGGGATT
B20: CUCCUAA (DNA:RNA)
RNA: B9 RNA with A25C, C26U, A28C, C29U, U31A
DNA 1: CAATCTGAATTCCGGTCTCCC
DNA 2: TGGTGGCTACGACGGGATT
B21: CAGAGAG (DNA:RNA)
RNA: B1 RNA with G28A, U30A
DNA 1: CAATCTGAATTCCGGTCTCCC
DNA 2: TGGTGGCTACGACGGGATT
B22: GUCACCC (DNA:RNA)
RNA: B9 RNA with A25G, C26U, A30C, U31C
DNA 1: CAATCTGAATTCCGGTCTCCC
DNA 2: TGGTGGCTACGACGGGATT
B23: GUUUAAC (DNA:RNA)
RNA: B12 RNA with U25G, G30A, A31C
DNA 1: CAATCTGAATTCCGGTCTCCC
DNA 2: TGGTGGCTACGACGGGATT
B24: CAACUGA (DNA:RNA)
RNA: B1 RNA with G27A, G28C, G29U, U30G, G31A
DNA 1: CAATCTGAATTCCGGTCTCCC
DNA 2: TGGTGGCTACGACGGGATT
B25: AACUGUG (DNA:RNA)
RNA: B1 RNA with C25A, G27C, G28U
DNA 1: CAATCTGAATTCCGGTCTCCC
DNA 2: TGGTGGCTACGACGGGATT
B26: CCUGUUA (DNA:RNA)
RNA: B1 RNA with A26C, G27U, G29U, G31A
DNA 1: CAATCTGAATTCCGGTCTCCC
DNA 2: TGGTGGCTACGACGGGATT
B27: AUAUUCU (DNA:RNA)
RNA: B9 RNA with C26U, C27A, A28U, C29U, A30C
DNA 1: CAATCTGAATTCCGGTCTCCC
DNA 2: TGGTGGCTACGACGGGATT
B28: CUGGGAA (DNA:RNA)
RNA: B1 RNA with A26U, U30A, G31A
DNA 1: CAATCTGAATTCCGGTCTCCC
DNA 2: TGGTGGCTACGACGGGATT
B29: AUUCUUC (DNA:RNA)
RNA: B12 RNA with U25A, U28C, A29U, G30U, A31C
DNA 1: CAATCTGAATTCCGGTCTCCC
DNA 2: TGGTGGCTACGACGGGATT
B30: GCCGACG (DNA:RNA)
RNA: B9 RNA with A25G, A28G, C29A, A30C, U31G
DNA 1: CAATCTGAATTCCGGTCTCCC
DNA 2: TGGTGGCTACGACGGGATT
B31: CAGGGCA (DNA:RNA)
RNA: B1 RNA with U30C, G31A
DNA 1: CAATCTGAATTCCGGTCTCCC
DNA 2: TGGTGGCTACGACGGGATT

molecular target: T1, RBFOX1 RRM; experiment: EMSA; HiTS-Eq, 1 nM pool, 10 min; buffer printed only for the single-RNA assays: 10 mM Tris pH 7.5, 150 mM NaCl, 3.4 mM EDTA, 0.001% NP-40, 30 C; conditions: tags: His6 N-terminal (pET28a); label: 5' 32P
How it was run: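 These values rest on relative association constants, computed from read-count changes of each RNA species versus the control reaction and normalised to the cognate motif. Reads came from free RNA recovered by 8% native PAGE after purified RbFox RRM (wild type or mutant) at increasing concentrations was equilibrated for 10 min in 50 µL with 1 nM of a 5′-radiolabelled pool with 7 randomized nucleotides and DNA-annealed flanks.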

In order of rising binding signal:
1. B9  0.000362 KA relative to UGCAUGU
2. B29  0.00177 KA relative to UGCAUGU
3. B16  0.00248 KA relative to UGCAUGU
4. B27  0.0027 KA relative to UGCAUGU
5. B8  0.00272 KA relative to UGCAUGU
6. B4  0.00395 KA relative to UGCAUGU
7. B20  0.00489 KA relative to UGCAUGU
8. B5  0.00599 KA relative to UGCAUGU
9. B22  0.00647 KA relative to UGCAUGU
10. B19  0.0078 KA relative to UGCAUGU
11. B24  0.00796 KA relative to UGCAUGU
12. B26  0.00818 KA relative to UGCAUGU
13. B2  0.00855 KA relative to UGCAUGU
14. B10  0.00864 KA relative to UGCAUGU
15. B23  0.0102 KA relative to UGCAUGU
16. B6  0.0114 KA relative to UGCAUGU
17. B18  0.0116 KA relative to UGCAUGU
18. B21  0.0117 KA relative to UGCAUGU
19. B31  0.0123 KA relative to UGCAUGU
20. B25  0.0131 KA relative to UGCAUGU
21. B11  0.0135 KA relative to UGCAUGU
22. B14  0.0136 KA relative to UGCAUGU
23. B28  0.0136 KA relative to UGCAUGU
24. B17  0.0149 KA relative to UGCAUGU
25. B1  0.015 KA relative to UGCAUGU
26. B12  0.0163 KA relative to UGCAUGU
27. B3  0.0166 KA relative to UGCAUGU
28. B30  0.0176 KA relative to UGCAUGU
29. B15  0.0195 KA relative to UGCAUGU
30. B7  0.0258 KA relative to UGCAUGU
31. B13  0.0335 KA relative to UGCAUGU

— paper PMC9911399, “Two distinct binding modes provide the RNA-binding protein RbFox with extraordinary sequence specificity”
